In all, about 33,000 sequences were measured (“E-score (-0.5 to 0.5)”: median about -0.032, highest 2% from about 0.36 on). The list shows a part of the results.
The sequences below were run against T1, Sko1 (UniProt Q02100) (assay: PBM E-score (8-mer binding enrichment) (E-score (-0.5 to 0.5)); higher = stronger / more preferred TF binding; most listed sequences are background and not binding sites). Settings: protein concentration: 200 nM; construct: GST-full length.
T1 sequence: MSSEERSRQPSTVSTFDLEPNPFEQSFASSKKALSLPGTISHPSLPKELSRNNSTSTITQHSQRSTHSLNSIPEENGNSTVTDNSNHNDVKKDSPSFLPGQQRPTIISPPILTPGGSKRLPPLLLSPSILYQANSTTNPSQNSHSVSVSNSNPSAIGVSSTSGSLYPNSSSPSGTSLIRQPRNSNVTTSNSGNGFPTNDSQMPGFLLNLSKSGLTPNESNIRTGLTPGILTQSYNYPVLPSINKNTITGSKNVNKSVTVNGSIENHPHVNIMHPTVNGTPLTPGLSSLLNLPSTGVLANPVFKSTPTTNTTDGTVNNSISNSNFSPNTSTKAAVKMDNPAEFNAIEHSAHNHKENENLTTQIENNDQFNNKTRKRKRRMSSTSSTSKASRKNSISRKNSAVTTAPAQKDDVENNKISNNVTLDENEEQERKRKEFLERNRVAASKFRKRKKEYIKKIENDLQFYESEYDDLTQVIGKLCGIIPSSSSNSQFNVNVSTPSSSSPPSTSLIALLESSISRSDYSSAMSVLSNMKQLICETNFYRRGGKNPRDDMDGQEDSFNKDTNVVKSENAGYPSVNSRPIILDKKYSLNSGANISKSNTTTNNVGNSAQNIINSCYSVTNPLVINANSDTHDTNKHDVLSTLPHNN
Summary of the method: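 Yeast transcription factors carrying a GST tag, as full-length proteins or DNA-binding domains, were produced by PURExpress in vitro transcription/translation. About 100-200 nM protein was applied to universal all-10-mer Agilent arrays, double-stranded by primer extension on fresh or once-stripped slides. Bound protein was detected with fluorescent anti-GST, and scans were normalised with masliner. The Universal PBM Analysis Suite gave each ungapped eight-base word, pooled with its reverse complement, an E-score, a modified Wilcoxon-Mann-Whitney statistic.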

Sequence	PBM E-score
AGATCAGC	-0.183
CCATTACC	-0.148
AATTTATG	0.156
CACGGCCG	-0.197
GATTTTGA	0.213
CATACGCA	0.392
AGGACGAC	-0.114
GTTGATGA	0.303
ACTCATGA	0.218
ACCTCACC	-0.185
TATATAAA	0.246
CATTCTCA	0.128
CCAATGGG	-0.408
TATAATAA	0.16
AGACCTTA	0.0871
TTTCCAAA	0.0643
AGATTACG	0.459
ATCTATCG	0.003
ATTTTCTG	0.00918
AAGCCCCA	-0.3
ACGGAGCT	-0.193
AGCAAGTC	-0.22
ATAACTGC	0.0695
CGCCCCTA	-0.0907
AACAGTAG	0.104

Sequence	PBM E-score
CGGACTGA	-0.0335
GTAACACA	0.16
CGTACTGA	0.254
ACGACGTC	0.367
CAAGAGAA	0.0556
GGACTAAA	-0.116
CGATCGGC	-0.0124
AAAGTCGC	0.0616
AATCAGAG	0.0386
ATGGGCAG	-0.208
CCCGAAGA	-0.199
CCAAACGA	-0.169
GCGAGAAC	-0.0734
TACGGCCA	-0.151
AGTCGACC	-0.182
GCATCCGA	-0.208
GCCCCGCA	-0.286
CGGCTTTA	-0.112
ACAGCACA	0.168
AACTAACG	0.178
ACCTGTCT	-0.255
ACTTAGCT	-0.211
ATCTGTAA	0.00807
CTGCTTGC	-0.136
CAATTGAG	-0.101

Sequence	PBM E-score
GCCTAGGA	-0.197
ACACCCCG	-0.283
GCTAAGTA	0.0116
CCTTTGCA	-0.0233
AGCGGCCT	-0.335
AGCTGACA	-0.113
CCGTATTC	0.0573
ACGCTCGA	0.0575
GCTGCGCA	-0.179
AGTTGTAG	-0.0613
ACAAGGGA	-0.163
AGTAAGAG	-0.117
TAAACTGA	0.161
CACACCGC	-0.184
AACATAGG	-0.0811
GCGTCACA	0.406
ACGTCGGC	0.348
CCTCCAAA	-0.142
ACCGCACA	-0.262
AAAGGCTA	-0.214
ACCTATTC	-0.0568
GTCATTGA	0.416
AAATCGGA	-0.0955
GATTCTAA	0.0158
AAGTCCGG	-0.268

Sequence	PBM E-score
CATTTCTC	0.0912
GCACTGCC	-0.169
TGAGAAAA	0.123
AACCCCCA	-0.33
CAGCGGCC	-0.233
AAACCGAT	-0.0581
GCGGCTCA	-0.161
ATGTGGTG	0.143
CGTTATAG	0.194
ACAACAGA	0.0102
ACATATCG	0.0818
CGCACCTA	0.027
TACCCGAA	-0.0322
CGTACTTC	0.289
ATAGGCAG	-8e-05
GAGGTTCA	-0.00892
AACTTATC	-0.0274
ATCACCCC	-0.173
AGCCCAGA	-0.201
CCTAGCCG	-0.219
CTAAAAAC	0.0271
GCGCGTCC	-0.15
TCGTGTCA	0.0636
ACTGATTA	0.14
ACGTTAAA	0.355

Sequence	PBM E-score
AAACTATG	-0.116
CCCTGCGC	-0.19
CCACGTAG	0.377
CGTTAAAG	0.105
CGTGCTTC	0.26
GCGCTTCA	-0.155
AAGGGGCG	-0.406
AAGACCAA	0.00527
GAGACTGC	-0.054
GCAACAAA	0.113
CGAAGCTA	0.104
CGCCTCTA	-0.112
CCGACAGA	0.0108
CCCCACAA	0.0461
ATGCTTGC	-0.0401
ACATTACG	0.425
CTGTACAG	-0.119
AGGATCCT	-0.0833
CTTTGGGA	-0.187
CGGCGCCC	-0.127
AGCGGATA	-0.246
ATCGGGGA	-0.224
CGGCTCTC	-0.176
GAGCTCAA	-0.0686
ACGTTCCT	0.279

Sequence	PBM E-score
CTAACAAG	0.0229
ACCAAGAG	-0.236
GGAATACA	-0.0466
AGAGGCGC	-0.146
ACGACCAC	0.0895
GGCTAGAA	-0.19
ACGCCCCT	-0.248
AGAGTGAA	0.0907
CTCGCTTC	-0.2
ACGGTAGC	0.037
ACATATGG	0.0278
GGCGCAGA	0.00619
CTACAACC	-0.056
AACGTCGA	0.281
CAAACGTG	0.272
TAGCATAA	0.0927
CACAATAG	0.0487
GGCCGGAA	-0.389
AAGACGGG	-0.157
GACCGTAA	-0.0314
AGACGGAC	-0.0494
CAGCTCTC	-0.208
GCATTACC	-0.0897
CAGCAGTA	-0.0325
AAATCTTG	0.158

Sequence	PBM E-score
TAGGACTA	-0.0581
ATCCCCCA	-0.382
ACTGGAAG	-0.121
GCCTAAGC	-0.19
GAACGCCC	-0.244
AATTACGT	0.492
ATGTGATA	0.255
AATTTGGC	0.0233
ACGAGCGC	0.00482
ATTCGCCG	0.0444
CGACACCA	-0.0439
CGCGTAAG	0.352
CAATTATC	0.17
GTAGCGAA	0.0889
CAGCGCCA	-0.133
TCTTTAAA	0.125
AGGGTTTA	0.099
ATTGAGGG	-0.27
AGACTCAC	-0.129
CCGCTCCC	-0.345
ATAAGTAT	0.0774
ATATCTAG	0.00505
CTTCGTTA	0.161
CAGGTTAG	-0.279
CGGCCGCC	-0.339

Sequence	PBM E-score
AATTGTGC	0.12
CCTATCGA	-0.0618
CTCCCACC	-0.366
CGTCAGGC	0.272
GAGGCCGA	-0.183
GATGCCAA	-0.0661
CCACGACG	0.11
CGTGCTCA	0.202
TAATAGGA	0.125
GCGTACGA	0.238
ACTTTATG	0.109
CGTCTAGA	-0.0458
TGACCACA	-0.0673
GGCCGGCA	-0.223
CGCACTCA	0.115
CGATAGAG	-0.0857
ATTCCAAA	0.0535
AAACATAG	0.0378
ACTTCTAG	-0.279
AAGTGCGG	0.0424
CCATTGTC	-0.146
ACAATAGA	0.0568
GCCAGTAA	-0.27
ACATGTTC	-0.0196
ATTGGGGG	-0.233

Sequence	PBM E-score
AGCCGTAG	-0.312
CAGATCCG	-0.161
AAATAGCC	-0.0119
CACAACTG	-0.121
GGCAGCAC	-0.103
CTTGGAAC	-0.0974
GGTCCGGA	-0.132
CGATGTTC	-0.297
ATTGGTGC	-0.0524
GCGGCGCA	-0.241
GAACAAGA	0.104
CTATACAA	0.055
TAATAATA	0.203
CGGAGCGC	-0.239
GTTCTGAA	0.162
TAGGCTCA	-0.19
CAGCACCA	-0.333
ACTAAGTG	0.00171
TCTTGACA	0.0467
CGGTCTAA	0.0521
CGGGCGTA	-0.179
GAGGAGCA	-0.0843
ATCGTTTC	0.0108
CCAGAACA	-0.0689
GCAAAGCC	-0.191

Sequence	PBM E-score
AAAACTAG	-0.0988
CATTATCC	0.083
CACGGTAC	-0.188
GCGTTCTA	0.00581
AAAGATGG	-0.0167
GAAGTATA	0.0355
GAGCATGA	-0.0347
CCTGCACC	-0.238
CAATCTGA	0.128
CTTTGTCC	-0.117
CAGCTCAC	-0.141
ACCCCGCC	-0.123
ACCAACAG	-0.199
CCCGCCCA	0.0374
AACCTGGT	-0.154
ACTAGCCT	-0.103
ACCAGGAA	-0.212
ACACCCCT	-0.00504
GCGTACCA	0.138
AGTGGCGC	-0.0278
GGCAGACC	-0.39
AGGGTGTG	-0.0439
GAGTCGGC	-0.211
ACCTTCGT	0.0282
CGTCAGAA	0.37

Sequence	PBM E-score
CTCTTTCA	-0.0826
CTCCATGC	-0.184
AAATGCTT	-0.0922
AATCCGCC	-0.257
CCGATCGG	-0.0358
ACGGATGA	0.0509
TCAGCACA	0.0395
ATCCAGAT	-0.136
ACGTTAGT	0.304
CCCCTTCA	-0.174
GTTCGGAA	-0.215
GGCTAGGA	-0.149
ACTGACTC	-0.281
GATCCATA	0.0287
GAACGCCA	-0.0535
ACCCGGTA	0.0488
TGCTTGAA	0.168
CTGAGGTC	-0.181
CAAGTGAC	0.185
CTGGGTTA	-0.09
GAGGTTCC	-0.182
CCTCTTGC	-0.198
AAAGCTAT	0.055
CATAGAGC	-0.213
AATGCACC	0.0446

Sequence	PBM E-score
CTGGAAGC	-0.237
AATTAACC	0.0168
ATACGACA	0.363
ATAAGAAT	0.195
AAAGGCCA	-0.118
AGCAACGC	0.0819
ACATTACA	0.28
ACCAGTAA	0.0811
GGCCTCAC	-0.0829
AAACTGTG	0.0182
GATGACAA	0.256
AGGCGCTC	-0.226
CCTTGCAG	-0.234
TAACTCAA	0.165
GCGAACAC	-0.178
ATCTGCTG	0.00474
ATATGCGA	0.206
CCAGGGGC	-0.338
CTCCCCCA	-0.312
CTCACCTC	-0.0338
CCTCGGGC	-0.181
ACGGAGGA	-0.114
CCACATTA	-0.0674
CGCGAGTA	-0.0393
AACGACGG	0.0454

Sequence	PBM E-score
CATTGTGA	-0.00774
CTAGTCGA	-0.114
ACCAGACA	-0.0538
GACCATGA	0.0708
CTGAACCA	-0.044
TGAATCCA	0.0184
CAACGAGC	-0.126
AATCGTGC	0.148
GTCCAAAA	0.0853
AACGACAT	0.286
AAAAAGTC	-0.0118
TGCAGACA	-0.0242
CTTTCAGA	0.033
AAGGCTGC	-0.176
CGACGGCG	0.0652
ACTTACCT	-0.0598
CGCCAATA	0.0829
AATGCCTA	-0.0242
GAAGTAAA	0.0539
AGTGAGAC	-0.0781
TCATGGGA	-0.034
CTAGGCGC	-0.0323
CTATACCA	-0.0255
CGAGTCAG	-0.129
AACTTGAT	0.208

Sequence	PBM E-score
AGTAGTAT	0.0161
GGACGTAC	0.275
ACAGCAGC	-0.157
CACTCCAG	-0.14
CAGCTGAG	-0.108
AGCCGGTG	-0.216
ATCCTACC	-0.222
CTCGCAGA	-0.235
ACGTCCAT	0.39
AGGTGATC	0.188
GAGGGTAC	-0.209
ACTAATGA	0.243
GGAATTGA	0.0859
ACGTATTA	0.468
GGGTTACA	0.0387
CACTCGTA	0.0905
TCCGCTCA	-0.187
ATTGAAAC	0.132
GCACCTTA	-0.062
